About 230 (0.21%) of roughly 110,000 compounds showed an effect of 50% or more. This is one part of the list.
What follows are compounds tested against DPAP1 (Plasmodium falciparum, UniProt Q8IIJ9) (assay: primary screen, percent inhibition; read by cleavage of a fluorogenic dipeptide substrate; higher = more effect of the substance).
Design: species or system P. falciparum D10 trophozoite lysates; single well
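Further: 30 min substrate incubation versus DMSO and 10 µM JCP410 controls.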

DPAP1, sequence (Q8IIJ9 whole entry, looked up): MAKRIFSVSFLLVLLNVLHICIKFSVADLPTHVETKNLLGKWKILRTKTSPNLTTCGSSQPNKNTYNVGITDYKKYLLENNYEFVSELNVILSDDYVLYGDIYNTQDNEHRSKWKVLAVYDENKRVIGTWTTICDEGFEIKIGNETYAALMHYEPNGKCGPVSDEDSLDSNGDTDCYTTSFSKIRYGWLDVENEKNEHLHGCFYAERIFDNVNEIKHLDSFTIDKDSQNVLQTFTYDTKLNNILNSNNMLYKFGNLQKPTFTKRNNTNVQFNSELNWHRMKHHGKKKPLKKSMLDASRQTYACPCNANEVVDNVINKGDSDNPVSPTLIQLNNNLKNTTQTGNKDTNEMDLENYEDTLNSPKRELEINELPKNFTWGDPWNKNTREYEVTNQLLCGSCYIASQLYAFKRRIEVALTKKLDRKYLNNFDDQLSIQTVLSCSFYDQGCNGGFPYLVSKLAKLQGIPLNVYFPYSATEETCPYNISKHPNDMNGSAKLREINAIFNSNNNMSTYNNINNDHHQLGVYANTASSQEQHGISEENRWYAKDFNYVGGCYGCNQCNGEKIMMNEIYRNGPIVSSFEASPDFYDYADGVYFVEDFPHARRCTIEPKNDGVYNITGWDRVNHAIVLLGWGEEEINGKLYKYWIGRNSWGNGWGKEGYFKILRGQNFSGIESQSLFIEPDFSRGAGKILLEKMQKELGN

Compound | % Inhibition @ 10 uM [%]
CCN1CCC(NCCCN2CCOCC2)CC1 | 1.88
COCCN1C(=O)c2oc3ccc(F)cc3c(=O)c2C1c1cccc(O)c1 (stereo not shown) | 2.31
COc1cc(-c2noc(-c3cc4ccccc4oc3=O)n2)cc(OC)c1OC | 7.52
Cc1c(Cl)cccc1NC1=NC(=O)/C(=C/c2ccc(OCC(=O)O)cc2)S1 | 2.43
Cn1ncc2c(N3CC=C(c4ccccc4)CC3)ncnc21 | 6.29
COc1ccc(C2N(C(=O)CN3CCCC3)CCN2S(=O)(=O)c2ccccc2)cc1 (stereo not shown) | 3.16
O=C(NCc1nnc(S)n1Cc1ccccc1)c1ccc(S(=O)(=O)N2CCOCC2)cc1 | 1.67
COc1ccc(C(=O)C2=C(O)C(=O)N(c3nc4ccc(C)cc4s3)C2c2cccnc2)cc1 (stereo not shown) | 5.09
CC(NC(=O)CN1CCCCC1)C1CC2CCC1C2 (stereo not shown) | -1.32
N#Cc1c(NC(=S)NC(=O)c2cccnc2)sc2c1CCCC2 | 4.65
CN(Cc1ccccc1)C(=O)CSc1ccc(Cl)cc1 | 0.674
CCN1CCC2(CC1)OC(=O)C(C)=C2C(=O)NCCCOC | -0.501
O=C(CSc1nnc(CNC(=O)c2c(F)cccc2Cl)o1)NCC1CCCO1 (stereo not shown) | -5.27
COc1ccc2ccccc2c1C=C1C(=O)OC(C)(C)OC1=O | -0.339
CCOc1ccc(C2c3c(oc4ccc(F)cc4c3=O)C(=O)N2CC2CCCO2)cc1OC (stereo not shown) | -7.33
O=c1c(CN2CCCC(O)C2)coc2ccccc12 (stereo not shown) | -6.21
CCCC(=O)Nc1ccc2c(c1)c1ccccc1n2CC | 4.11
Cc1c(-c2cccc(Cl)c2)nc2ccccc2c1C(=O)NCCN1CCOCC1 | -1.1
Cc1cccc(C)c1N1C(=O)c2ccc(C(=O)O)cc2C1=O | 2.27
COc1cc(SC)ccc1C(=O)Nc1cc(Cl)ccc1C | -0.981
O=C(Cn1ncc2c(Cl)cccc21)NC1CCCCCC1 | -2.88
CCc1ccc(S(=O)(=O)NCc2csc(C)n2)cc1 | -0.72

Compound | % Inhibition @ 10 uM [%]
CC(C)(C)c1ccccc1OCCCCN1CCCC1 | -2.12
O=C1S/C(=C/c2ccccc2F)C(=O)N1CCNC1=NS(=O)(=O)c2ccccc21 | -1.22
NC(=O)c1c(NC(=O)CCCC(=O)O)sc2c1CCCCCC2 | 0.76
CCOc1ccc(CCNCc2c(C(=O)O)n(Cc3ccc(F)cc3)c3cc(C)ccc23)cc1 | 1.26
Cc1cc(S(=O)(=O)N2CCn3c(nc4ccccc43)C2)ccc1F | 2.34
O=C(Cn1ncc2c3ccccc3nc-2c1O)NCCCN1CCOCC1 | 1.19
CCn1cc(/C=C(\NC(=O)c2ccc(C)cc2)C(=O)N2CCN(C)CC2)c2ccccc21 | 4.8
Cc1nc(Nc2ncc3c(n2)CC(C)(C)CC3=O)nc2ccccc12 | 5.31
CCOc1ccc(CNC(=O)C(CC)n2nc(C)c3c(C)n(-c4ccccc4)nc3c2=O)cc1 (stereo not shown) | -4.57
Clc1ccccc1N1CCN(Cc2c[nH]c3ccccc23)CC1 | -2.56
CS(=O)(=O)N(CC(=O)Nc1ccc(F)c(Cl)c1)C1CCCCC1 | -9.31
CC12CN3CC(C)(CN(C1)C31CCCC1)C2=O | -4.35
CC(C)CCNC(=O)Cn1nc(-c2ccccc2)ccc1=O | 0.514
COc1cc(C)ccc1OCCOc1ccc(/C=C2/C(=N)N3OC(C)=CC3=NC2=O)cc1Cl | 2
Cc1ccc(NC(=O)C(C)S(=O)(=O)c2nc3nc(C)cc(C)n3n2)cc1 (stereo not shown) | -5.19
COc1ccccc1-c1nnc2sc(-c3cccnc3)nn12 | 1.25
CN(C)CCN(Cc1ccccc1)C(=O)c1cc2c(s1)-c1ccccc1OC2 | -1.37
FC(F)(F)c1cccc(-n2c(S)nnc2CN2CCSCC2)c1 | -5.48
CCOc1cc(C2C(C#N)=C(N)OC3=C2C(=O)CC(C)(C)C3)ccc1OC(C)C (stereo not shown) | -0.941
O=C1CCCc2c1nc(-c1ccco1)n2O | -1.5
CCC(C)(C)C1CCc2c(sc(N)c2C(=O)OC)C1 (stereo not shown) | 0.132
N#CCNC(=O)[C@H](Cc1csc2ccccc12)NC(=O)OCc1ccccc1 | -1.41

Compound | % Inhibition @ 10 uM [%]
O=C(NCC(O)c1ccccc1)c1nc(-c2ccc3c(c2)OCO3)no1 (stereo not shown) | -1.85
Cc1cccc(-n2ncc(C(=O)NCc3ccccc3)c2C2CCN(C(=O)OC(C)(C)C)CC2)c1 | -9.2
Cc1ccc(Nc2nc(-c3ccc(S(=O)(=O)N4CCCCC4)cc3)cs2)cc1 | -0.591
CCCNC(=O)NC1(C(F)(F)F)Oc2cc(Cl)c(Cl)cc2O1 | -2.9
c1ccc(CC2CCN(CCCNc3nc4ccccc4n4nnnc34)CC2)cc1 | 4.33
CC(C)NC(=O)CSc1c2c(nc3ccc(Cl)cc13)CCCC2 | -8.9
COc1ccc(N2C(=O)CC(N(CCc3ccccc3)C(=O)c3ccccc3)C2=O)cc1 (stereo not shown) | 2.09
CCCC(CCC)C(=O)Nc1cccc(NC(=O)c2cccs2)c1 | -8.68
Nc1ccc(-c2nnc(-c3ccc(-c4ccccc4)cc3)o2)cc1 | 17.4
c1ccc(CN2CCSCC2)nc1 | -1.78
CCCC[C@H](NC(=O)[C@H](Cc1ccc2ccccc2c1)NC(=O)c1ccc(CN)cc1)C(=O)CO | -0.778
Cc1ccc(-c2[nH]ncc2CNC23CC4CC(CC(C4)C2)C3)cc1C | 2.31
Cc1ccc(C2C(C#N)=C(N)Oc3c2c(C)nn3-c2cccc(F)c2)cc1 (stereo not shown) | 0.866
Cc1cccc(N(CC(=O)N2CCN(Cc3ccccc3)CC2)S(=O)(=O)c2ccccc2)c1 | 4.49
COc1ccc(C2Oc3c(OC)cccc3C3CC(c4ccco4)=NN32)cc1 (stereo not shown) | 15.8
Clc1ccccc1OCCCn1ccnc1 | -0.351
CCOC(=O)c1cnn(-c2ccccc2)c1NC(=O)CSC1=NC(=O)C(c2ccccc2)C(=O)N1 (stereo not shown) | -0.597
O=P(O)(CCc1ccccc1)CN1CCCCC1 | -3.27
O=C(O)CCC(=O)NCCC(c1ccccc1)c1ccccc1 | -6.65
O=C(Nc1cccnc1)c1coc(=O)c2ccccc12 | -2.4

Reference: publication PMC6919601, “Identification of Plasmodium dipeptidyl aminopeptidase allosteric inhibitors by high throughput screening” (PLoS ONE, 2019)
